Source: PubChem BioAssay AID651687 (Broad Institute, 2012)
Out of some 350,000 compounds screened, about 600 (0.17%) were called active. Inconclusive results, whose numbers are uncertain, are shown with a selection of clear calls.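 Rule for the calls: active = every replicate shows inhibition of at least 40%; inconclusive = mean inhibition at least 40% but some replicate below; inactive = the rest.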

Test: inhibitors of PGC1a acetylation signal, primary screen, cell-based, U2OS, AlphaScreen, inhibitor mode (AID 651687);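 note: 0% = neutral control wells and 100% = positive control wells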
Conditions: AlphaScreen anti-acetyl-lysine, at 15.6 µM, stronger effect = higher value, with virally co-expressed GCN5 acetyltransferase

SMILES	inhibition
COc1ccc(NC(=O)Nc2ccc3c(c2)C(=O)N([C@H](C)CO)C[C@H](C)[C@H](CN(C)Cc2ccccc2)O3)cc1	inactive: 4.47%
NC(=O)NC(=O)Nc1ccccc1Cl	inconclusive: 54.3%
O=C(NC(=S)NCCN1CCOCC1)c1ccccc1Cl	inactive: -14.3%
CC(=O)N1CC2(C1)[C@@H](c1ccc(-c3ccc(C#N)cc3)cc1)[C@@H](CO)N2C(=O)C1CC1	inactive: 4.68%
Cc1cccc(CC2CC(=O)N(C3CCCCC3)C2=O)c1 (stereo unspecified)	inconclusive: 45.7%
CC1CCCCN1C(=O)CN(C)S(=O)(=O)c1cccc2nsnc12 (stereo unspecified)	active: 41.6%
O=C(Cn1ncc(Cl)c(Cl)c1=O)NC(=O)NC1CCCCC1	inconclusive: 57.8%
COc1ccc(F)cc1CN1CCN(CC(=O)N2CCc3ccccc32)CC1	inconclusive: 43.9%
C=C1C(=O)[C@]23C[C@H]1CCC2[C@]1(C)C(=O)CC[C@@](C)(C(=O)O)C1C[C@@H]3O (stereo partly specified)	inactive: -11.8%
CCC(=O)Nc1ccc2c(c1)C(=O)N(C)[C@@H]1CC[C@@H](CC(=O)NCCc3ccncc3)O[C@H]1CO2	inactive: 5.85%
C#CC(CC)(CC)NC(=O)c1ccc(Br)s1	inconclusive: 45.6%
CCCN(C)C[C@H]1OCCCC[C@@H](C)Oc2ccc(NC(=O)NC(C)C)cc2C(=O)N([C@@H](C)CO)C[C@H]1C	inactive: -1.48%
C[C@H]1CN([C@@H](C)CO)C(=O)CCCn2cc(nn2)CO[C@H]1CN(C)S(=O)(=O)c1ccc(Cl)cc1	inconclusive: 49.3%
CCOc1ccc(NC(=O)CSc2nnc(CCNC(=O)c3ccc(OC)cc3)n2CC)cc1	inactive: -5.39%
O=C(c1cc2ccccc2o1)N1CC=C(c2ccccc2)CC1	inconclusive: 53.8%
COC(=O)c1[nH]c2ccc(F)cc2c1NS(=O)(=O)c1ccc(OC)cc1OC	inconclusive: 43.1%
O=C(C[C@H]1C=C[C@H](NC(=O)Nc2ccc(C(F)(F)F)cc2)[C@@H](CO)O1)NCc1ccccn1	inconclusive: 43.5%
COc1ccc(S(=O)(=O)N(C)C[C@@H]2Oc3ncc(-c4ccccc4)cc3C(=O)N([C@H](C)CO)C[C@@H]2C)cc1	inconclusive: 46.6%
CC(C)NC(=O)Nc1cccc2c1O[C@@H](CN(C)CC1CC1)[C@H](C)CN([C@H](C)CO)C2=O	inactive: 0.33%
CC(=O)c1ccc(Nc2cc(C)nc3ccc(C)cc23)cc1	inconclusive: 40%
CCN(CC)Cc1c(O)ccc2c([N+](=O)[O-])c(C)n(-c3ccc(OC)cc3)c12	active: 45.7%
CSCc1cc(N2CCOCC2)nc(SCc2ccc(Cl)c(Cl)c2)n1	inactive: 5.73%
COC(=O)C(CCSC)NC(=O)/C=C/c1ccc(OC)cc1 (stereo unspecified)	inactive: 0.97%
O=S(=O)(c1ccc2[nH]ccc2c1)N1CCCCCC1	active: 68%
COc1ccc(S(=O)(=O)N[C@H]2CC[C@@H](CCNC(=O)c3ccccc3F)O[C@@H]2CO)cc1	inconclusive: 52.4%
CCOC(=O)CSc1nccc(N(C)C)c1C#N	inconclusive: 9.86%

SMILES	inhibition
CC(=O)OC[C@]12CC[C@H]3[C@@](C)(CC[C@H]4C(C)(C)CCC[C@]34C)[C@@H]1CC(C1=CC(=O)OC1O)O2 (stereo partly specified)	active: 86.5%
CC(N=C1NS(=O)(=O)c2ccccc21)C(=O)NCCCc1ccccc1 (stereo unspecified)	inconclusive: 46.5%
Cc1ccc(Nc2nc(C)cc(C)c2C(N)=O)c(C)c1	inconclusive: 40.5%
Cc1ccc(S(=O)(=O)N(C)C[C@@H]2OCCCC[C@H](C)Oc3ccc(NC(=O)Cc4ccccc4)cc3C(=O)N([C@@H](C)CO)C[C@H]2C)cc1	inactive: -7.75%
C#CCN1C(=O)C(O)(CC(=O)c2ccc(OC)c(OC)c2)c2ccccc21 (stereo unspecified)	inconclusive: 42.7%
C/C(=N\N1CCN(c2ccccc2)CC1)c1ccccc1O	inconclusive: 40.2%
O=C(CSc1c(Cl)cccc1Cl)NC1CCCc2ccccc21 (stereo unspecified)	inconclusive: 42.6%
Cn1c(CO)cnc1SCC(=O)c1ccc(Cl)cc1	inconclusive: 43.1%
COc1ccc(-n2c(SCC#N)nnc2-c2cccnc2)cc1	inconclusive: 43%
C[C@H]1CN([C@@H](C)CO)C(=O)c2cc(-c3cncnc3)cnc2O[C@@H]1CN(C)C(=O)c1cccc(F)c1	inconclusive: 51.2%
C/C(=N\NC(=O)c1cc(C)[nH]n1)c1ccc(-c2ccccc2)cc1	active: 79.4%
C/C(NCc1ccccc1)=C(\C#N)C(=O)NCc1ccccc1	inactive: -5.66%
C=CCOc1ccccc1CNc1ccc2[nH]c(=O)[nH]c2c1	inconclusive: 43.8%
CC(C)CCCCCCCCCCCCC(=O)NCC(=O)NC1C(C)OC(Nc2ncnc3nc[nH]c23)C(O)C1O (stereo unspecified)	inconclusive: 70.9%
COc1ccc(CNS(=O)(=O)c2ccc3c(c2)CCN3C(=O)C2CCC2)cc1	inactive: 6.57%
Nc1nccc(-c2ccc(-n3cnc4ccccc43)cc2)n1	inconclusive: 43.8%
CO[C@H](CN(C)C(=O)C1CCOCC1)[C@H](C)CN(C(=O)Nc1ccc(F)cc1)[C@@H](C)CO	inactive: 9.67%
O=C(CC1CC1)N[C@@H]1CC[C@@H](CCNS(=O)(=O)c2ccc(Cl)cc2)O[C@@H]1CO	active: 55.8%
COc1ccccc1Nc1nc(NCCC(C)C)nc(N)c1[N+](=O)[O-]	inconclusive: 46.6%
COc1ccc(OC)c(NC(=O)C2C(C(=O)O)C3(Cl)C(Cl)=C(Cl)C2(Cl)C3(Cl)Cl)c1 (stereo unspecified)	inconclusive: 41.7%
CC(C)C#Cc1ccc2c(c1)O[C@@H](CN(C)C(=O)C1CC1)[C@@H](C)CN([C@@H](C)CO)S2(=O)=O	inconclusive: 48.4%
O=C(Cc1cccc(NC(=O)C2CCN(C(=O)c3ccccc3)CC2)c1)Nc1cccc(C(=O)N2CCCCC2)c1	inconclusive: 41.5%
C(=N\Nc1nc2ccccc2[nH]1)/c1ccc2ncccc2c1	active: 48.9%
Nc1ncnc2c1ncn2[C@@H]1O[C@H](CO)C[C@H]1O	inactive: 0.331%
COc1ccc(-c2cc(-c3ccccc3)c(C#N)c(S(C)=O)n2)cc1 (stereo unspecified)	active: 85%
